The values below come from ChEMBL document CHEMBL4888484, “Replenishing the malaria drug discovery pipeline: Screening and hit evaluation of the MMV Hit Generation Library 1 (HGL1) against asexual blood stage Plasmodium falciparum ,using a nano luciferase reporter read-out” (2022).

Structures are written as SMILES. Screen size: about 150,000 compounds; about 540 (0.36%) showed an effect of 50% or more. This is one part of the list.

The experiment concerns Plasmodium falciparum. Nature of the experiment: Primary screen in NF54 nanoGlo assay, in single point, at 2uM, 72h; a lower Z score goes with more inhibition. In kind it is functional, Erythrocyte. The note with it: timepoint 72 hour.
Take `Cc1ccc(S(=O)(=O)N2CCc3nc(N4CCCC4)nc(N4CCN(C)CC4)c3C2)cc1`: the % Inhibition (as a rule, the drop in the measured response relative to a control, in per cent) was -2% and the Z score is listed as 0.24.
The corresponding values for `CCCCN(Cc1cccn1Cc1ccc(Br)cc1)C(=O)CN(CC(C)C)C(=O)Nc1cccc2ccccc12` are -3% and 0.52.
Regarding `Cc1ccc(-c2csc(Nc3ncccc3C)n2)o1`, the “% Inhibition” value was -7% and the Z score is on record as 0.92.
In the same order, the values of `CC(C)C(=O)N1CCC[C@H](CNC(=O)c2cccn3cnnc23)C1` are 5% and -0.76.
`Cc1cccc(C(=O)N(C)c2nc(C)cs2)n1`: the “% Inhibition” value is -10% and the Z score is given as 0.88.
In the same order, the values of `O=C(c1cn2cc(-c3ccc(Cl)cc3)ccc2n1)N1CCN(c2ccccc2)CC1` are -20% and 2.37.
Turning to `COc1ccc(CN2C(=O)N[C@@H](CCC(=O)Nc3ccc(F)c(F)c3)C2=O)cc1`, the “% Inhibition” value was -8% and the Z score is 0.9.
Consider `CCC1CCN(C(=O)c2ccc3c(c2)N(CC(=O)N2CCCC2)C(=O)CO3)CC1`, for which the “% Inhibition” value is on record as -13% and the Z score came out at 1.74.
For the compound `CC[C@H](C)NC(=O)c1cc(NC(=O)C(C)C)cc2nc(C)n(Cc3ccccc3)c12`, the “% Inhibition” value is -2% and the Z score is 0.4.
In the case of `O=C(CNS(=O)(=O)c1ccco1)NC1CCCCC1`, the “% Inhibition” value is given as -13% and the Z score was found to be 1.3.
For `Cc1cc(=O)c(C(=O)N2CCN(C)CC2)c(CC2CCCC2)n1CCCN1CCCC1=O`, the “% Inhibition” value is -7% and the Z score turned out to be 0.97.
Take `C[C@H](NCc1ccccc1)C1CCCCCC1`: the “% Inhibition” value is reported as -15% and the Z score came to 2.07.
In the same order, the values of `CN1Cc2ccc(CN(C)C(=O)NCC(F)(F)F)cc2C1` are -2% and 0.32.
The corresponding values for `O=C(Cn1c(=O)n(Cc2ccco2)c(=O)c2ccccc21)NC1CCCCC1` are 34% and -0.87.
For the compound `C[C@H](OC(=O)C1CCC1)C(=O)N1CC(=O)Nc2ccccc21`, the “% Inhibition” value was -4% and the Z score came out at 0.84.
Regarding `CCN1C[C@@H](CN(C)Cc2[nH]cc(C)c(=O)c2C)CC1=O`, the “% Inhibition” value is -13% and the Z score was determined as 2.49.
In the case of `O=C(Nc1cc(-c2cccc(Cl)c2)no1)c1cc2ccc3cccnc3c2[nH]1`, the “% Inhibition” value is recorded as -6% and the Z score came out at 1.09.
For `COC1(CNC2CC(C)c3c(C)cccc32)CCOCC1` (centres undefined), the “% Inhibition” value is -1% and the Z score was found to be 0.12.
Consider `CC(C)CC1(CNC(=O)CNC(=O)N(C)C)CCC1`, for which the “% Inhibition” value is given as 12% and the Z score is listed as -1.68.
In the same order, the values of `CC1CCN(C[C@H]2CCCCCN2C(=O)c2ccccc2F)CC1` are -4% and 0.63.
Turning to `Cc1nnc(N2CCN(c3cccc(Cl)c3)CC2)c2c1nnn2Cc1ccc(F)cc1`, the “% Inhibition” value is given as -2% and the Z score is given as 0.18.
As for `CCOCC(O)CN1CCC(c2ccccn2)C1` (centres undefined), the “% Inhibition” value worked out at 1% and the Z score is given as -0.2.
The corresponding values for `Cc1c(C(=O)Nc2cc(F)ccc2F)sc2ncnc(N3CCCC3)c12` are -14% and 1.31.
On to `Cc1cnn(C2CN(Cc3nc4ccccc4c(=O)[nH]3)C2)c1`, for which the “% Inhibition” value was -5% and the Z score was 1.01.
Take `CN(C)c1nc(NCc2ccccc2Cl)c2cnn(C)c2n1`: the “% Inhibition” value is listed as -2% and the Z score worked out at 0.31.
Take `O=C(c1ccc(C(F)(F)F)nc1)N1CC=C(c2ccccc2)CC1`: the “% Inhibition” value came to 4% and the Z score is -0.74.
Consider `Cc1ccccc1NC(=O)Cn1cnc2c(C(N)=O)nsc2c1=O`, for which the “% Inhibition” value is on record as -20% and the Z score is 2.7.
As to `C#CCCC1(CCC(=O)N2CC(COC)(C3CC3)C2)N=N1`, the “% Inhibition” value is -19% and the Z score came out at 2.36.
As for `Cc1cccn2cc(CN(CC(C)(C)O)C3CC3)nc12`, the “% Inhibition” value is reported as -13% and the Z score came out at 2.62.
The corresponding values for `CC1CC(C(N)=O)c2ccccc2N1Cc1ccc(-n2cccn2)cc1` (centres undefined) are -10% and 1.26.
With `COc1cccc(OCCN2CC[C@H](NC(=O)c3ccccn3)[C@@H](O)C2)c1`, the “% Inhibition” value is on record as -2% and the Z score is reported as 0.34.
For the compound `O=C(Nc1cccc2[nH]nnc12)N1CCC[C@@H]1CO`, the “% Inhibition” value is -10% and the Z score is listed as 1.48.
Consider `CCn1cc(Br)cc1C(=O)NC[C@H](C)c1nncn1C`, for which the “% Inhibition” value is on record as -5% and the Z score came to 0.59.
Consider `CC1CN(C(=O)c2cccc(C(=O)O)n2)C(c2ccccc2)CO1` (centres undefined), for which the “% Inhibition” value is -3% and the Z score came out at 0.48.
As for `COc1ccc(Nc2nc(NCCCn3ccnc3)nc3[nH]ncc23)cc1`, the “% Inhibition” value was 18% and the Z score is given as -3.48.
As for `CCN1CCN([C@H]2C(=O)c3ccccc3N2C(C)=O)CC1`, the “% Inhibition” value is reported as -20% and the Z score was determined as 2.67.
The corresponding values for `COc1ccc(NC(=O)CCc2cccc3[nH]ccc23)cc1` are -1% and 0.09.
As for `Cc1nc(C2CCCCC2)sc1C(=O)N1CC[C@H](O)CC12CCC2`, the “% Inhibition” value is on record as -12% and the Z score is 1.43.
`COc1ccc(CNC(=O)N2CC[C@H](Oc3ccncc3Cl)C2)cc1OC`: the “% Inhibition” value was -2% and the Z score amounted to 0.41.
The corresponding values for `COc1ccc(-n2nc(-c3ccccc3)n(CC(=O)NCCN(C)C)c2=O)cc1` are -8% and 1.06.
On to `Cc1nc(-c2ccc(F)c(F)c2)sc1C(=O)N[C@H]1CCN(C(C)C)C1=O`, for which the “% Inhibition” value is reported as -4% and the Z score stood at 0.47.
On to `O=C(NCc1ccncc1)[C@]1(F)CCCN(S(=O)(=O)c2ccccc2F)C1`, for which the “% Inhibition” value is listed as -8% and the Z score was 1.28.
